Tested on: BW5147-derived murine T-cell hybridoma cells
Test: Cell proliferation assay (WST-1)
Type: cell-based, mouse
Details: 1 nM, 12 h
Experimental: Cells were incubated for 10 h (37° C., 5% CO2) and then treated with inhibitor AA74-1 (1 nM final concentration) and incubated for further 12 h. About 10 μL of WST-1 reagent were added to each well and plates were incubated for 2 h in the dark at 37° C. Relative absorbance was measured with a plate reader at 440 nm. Data represent the average±s.d. for four experiments.

Compound | effect on cellular proliferation
COCC1CCCCN1C(=O)n1ncc(C(O)(c2ccccc2)c2ccccc2)n1 (centres unmarked) [AA44-2] | not observed
CC(C)CC(O)(CC(C)C)c1cnn(C(=O)N2CCCC2)n1 [AA74-1] | significant increase in cellular proliferation
